Experimental data published in ChEMBL document CHEMBL4888484, “Replenishing the malaria drug discovery pipeline: Screening and hit evaluation of the MMV Hit Generation Library 1 (HGL1) against asexual blood stage Plasmodium falciparum ,using a nano luciferase reporter read-out” (2022).
The campaign covered roughly 150,000 compounds. About 540 (0.36%) showed an effect of 50% or more. This is one part of the list.

What follows are molecules tested on Plasmodium falciparum (assay: Primary screen in NF54 nanoGlo assay, in single point, at 2uM, 72h; a lower Z score goes with more inhibition). Conditions: timepoint 72 hour.
Format: functional, Erythrocyte
With `Cc1ccncc1C(=O)N1CCC2(CC1)NCCc1c2[nH]c2ccccc12` the “% Inhibition” value was -5% and the Z score was 0.67.
For `Cc1ccc([C@H](CNc2ncccc2S(C)(=O)=O)N2CCCC2)o1`, the “% Inhibition” value was -31% and the Z score was 3.61.
With `Cc1cc(C)c(CNC(=O)c2c[nH]c3ncccc23)c(=O)[nH]1` the “% Inhibition” value was 31% and the Z score was -4.21.
In the case of `CCOC(=O)N1CCN(C(=O)Cc2sc(C)nc2-c2ccc(C)cc2)CC1`, the “% Inhibition” value is reported as 3% and the Z score is reported as -0.3.
For `O=C(NCCCn1ccnc1)c1cncc(Br)c1`, the “% Inhibition” value was -3% and the Z score was 0.33.
`Cc1cnccc1NCCn1ccnc1-c1ccc2c(c1)OCCO2` was tested, and the “% Inhibition” value was -9% and the Z score was 1.68.
With `Cc1nccc(CNC(=O)c2ccc(-c3ccco3)[nH]c2=O)n1` the “% Inhibition” value was -7% and the Z score was 0.64.
In the case of `CCn1nncc1CNC(=O)Nc1ccc(C2CCC2)cc1`, the “% Inhibition” value is reported as -4% and the Z score is reported as 0.57.
In the case of `COc1c(C)cnc(CN2CCCC[C@@H]2CCn2ccnc2)c1C`, the “% Inhibition” value is reported as -7% and the Z score is reported as 1.28.
`COc1ccc(NCc2ccc(-c3ccc(F)cc3C)o2)cc1N1CCOC1=O` was tested, and the “% Inhibition” value was -13% and the Z score was 1.36.
With `C[C@@H](Cc1cccs1)N(C)S(=O)(=O)c1cccnc1` the “% Inhibition” value was -3% and the Z score was 0.29.
With `Cc1nc(N2CCCN(CCCc3ccccc3)CC2)c2c(C)nn(C)c2n1` the “% Inhibition” value was -6% and the Z score was 0.99.
In the case of `CC(C)(C)OC(=O)CN1C[C@H](O)C(C)(C)C1`, the “% Inhibition” value is reported as -18% and the Z score is reported as 1.77.
With `CC(C)n1c(CCNC(=O)Cc2ccccc2Cl)nc2cccnc21` the “% Inhibition” value was -8% and the Z score was 0.93.
`CN1CCOc2ccc(NC(=O)Nc3ccn(CCC#N)n3)cc21` was tested, and the “% Inhibition” value was -13% and the Z score was 1.67.
In the case of `Cc1c(CN2CCCc3cc(Cl)ccc32)cnn1C`, the “% Inhibition” value is reported as 23% and the Z score is reported as -2.66.
For `OC[C@@H]1[C@@H](Cc2ccnc(-c3cccnc3)n2)[C@H](NCc2ccc(F)c(F)c2)C[C@H]1O`, the “% Inhibition” value was -10% and the Z score was 1.53.
In the case of `FC(F)(F)c1cccc(Nc2c3c(nc4ccc(Cl)cc24)CCCC3)c1`, the “% Inhibition” value is reported as -7% and the Z score is reported as 0.96.
With `Cc1c(C(=O)OCCn2cnc3c2c(=O)n(C)c(=O)n3C)ccc2cnc(C3CC3)n12` the “% Inhibition” value was -3% and the Z score was 0.33.
In the case of `Cc1ccncc1[C@H]1CCN(Cc2cn(C(C)(C)C)nn2)C1`, the “% Inhibition” value is reported as -13% and the Z score is reported as 2.04.
`CC1CCCC(OCc2cccc(N)c2)C1` (configuration not stated) was tested, and the “% Inhibition” value was -10% and the Z score was 1.1.
With `CN1CCCC(C(=O)N2CCN(C3CC3)CC2Cc2ccccc2)C1` (configuration not stated) the “% Inhibition” value was -7% and the Z score was 1.09.
For `CC[C@H](NC(=O)CC1CCCC1)c1nccs1`, the “% Inhibition” value was -7% and the Z score was 0.93.
`O=C1C2C3CCC(C3)C2C(=O)N1c1ccc2c(c1)OCCO2` (configuration not stated) was tested, and the “% Inhibition” value was -14% and the Z score was 1.75.
For `CN(CCn1ccc2ccccc21)Cc1nccn1C1CC1`, the “% Inhibition” value was -13% and the Z score was 1.35.
In the case of `CN(C)S(=O)(=O)c1ccc2c(c1)ncn2CCC(=O)NCc1ccco1`, the “% Inhibition” value is reported as -6% and the Z score is reported as 1.09.
In the case of `Cc1nc2cccnc2n1CCN1CCN(C(=O)Nc2cc(F)ccc2F)CC1`, the “% Inhibition” value is reported as -4% and the Z score is reported as 0.53.
`C[C@@H](Cc1cncc2ccccc12)C(=O)NCCc1nc(C(=O)O)cs1` was tested, and the “% Inhibition” value was 4% and the Z score was -0.76.
With `CC1CCCCC1NC(=O)CN1CCN(Cc2cccc(Cl)c2)C1=O` (configuration not stated) the “% Inhibition” value was 34% and the Z score was -4.62.
With `C[C@H]1CC(N)=NN1c1ccc(Cl)cn1` the “% Inhibition” value was -7% and the Z score was 1.29.
`COCc1noc(C[C@H]2CN(C(=O)Nc3ccc4[nH]ccc4c3)CCO2)n1` was tested, and the “% Inhibition” value was -8% and the Z score was 1.6.
For `Cc1cc(NC(=O)C(=O)N[C@@H](CC(C)C)CN(C)C)no1`, the “% Inhibition” value was 5% and the Z score was -0.73.
In the case of `O=C(C1CC2CCC1C2)N1CCn2c(nnc2C(F)(F)F)C1` (configuration not stated), the “% Inhibition” value is reported as 2% and the Z score is reported as -0.29.
`Cc1ccsc1C(=O)NCCc1cn2c(n1)CCCC2` was tested, and the “% Inhibition” value was -5% and the Z score was 1.04.
In the case of `CN(C)c1cc(C(F)(F)F)cc(C#N)n1`, the “% Inhibition” value is reported as -13% and the Z score is reported as 1.45.
`CCN1CCO[C@@H](CNCc2cc3ccccc3o2)C1` was tested, and the “% Inhibition” value was 2% and the Z score was -0.31.
With `COc1c(N)ncnc1N1CCC[C@H](C2CC2)C1` the “% Inhibition” value was -6% and the Z score was 1.12.
For `CC(C)c1noc([C@H]2CCC(=O)N(C3CCCCCC3)C2)n1`, the “% Inhibition” value was 6% and the Z score was -0.52.
With `CC(C)c1cccc(Nc2nc3ccncc3n(C(C)C)c2=O)c1` the “% Inhibition” value was 91% and the Z score was -8.7.
With `O=S(=O)(NC[C@H]1CCOC1)c1cnc(NCCCO)c(Cl)c1` the “% Inhibition” value was 4% and the Z score was -0.46.
With `CN(C)C(=O)[C@H]1CC[C@@H](C(=O)N2CCC2(C)C)O1` the “% Inhibition” value was 6% and the Z score was -0.57.
`CC1CCN(C[C@H]2CCCCCN2C(=O)NCCc2ccccc2)CC1` was tested, and the “% Inhibition” value was 44% and the Z score was -6.24.
`Cc1ccnn1CCC(=O)N1CC[C@@H]2OCc3cccc(c3)Oc3cccc(c3)CCC(=O)N(C)CC(=O)N[C@@H]2C1` was tested, and the “% Inhibition” value was 6% and the Z score was -1.1.
`CCC(CC)(C(=O)NCCc1ccccn1)C(=O)OC(C)(C)C` was tested, and the “% Inhibition” value was 0% and the Z score was 0.03.
For `c1ccc2nc(NCCCN3CCOCC3)cnc2c1`, the “% Inhibition” value was 4% and the Z score was -0.5.
`CCOc1ncccc1NC(=O)c1ccsc1` was tested, and the “% Inhibition” value was -6% and the Z score was 1.09.
In the case of `N#Cc1nccnc1NC1C2CCC1Cc1ccccc1C2` (configuration not stated), the “% Inhibition” value is reported as -5% and the Z score is reported as 0.88.
In the case of `COc1ccccc1OCC[C@H]1CCN(C(=O)CC(C)C)C1`, the “% Inhibition” value is reported as -11% and the Z score is reported as 2.19.
In the case of `N#Cc1ncn(CC(=O)Nc2ccccc2-c2ccccc2)c1C#N`, the “% Inhibition” value is reported as -4% and the Z score is reported as 0.52.
For `CC(C)c1noc([C@H](C)NS(=O)(=O)c2ccc3c(c2)OCCCO3)n1`, the “% Inhibition” value was -19% and the Z score was 2.
With `CO[C@@H](C)c1noc(CCC(=O)N2CCN3CCOc4cccc2c43)n1` the “% Inhibition” value was 1% and the Z score was -0.1.
In the case of `Cc1ccc(CNC(=O)Cn2c(C)cc(C)c2-c2nc(C(C)C)no2)cc1`, the “% Inhibition” value is reported as 3% and the Z score is reported as -0.48.
For `O=c1ccccn1S(=O)(=O)c1cc(Cl)ccc1Cl`, the “% Inhibition” value was -9% and the Z score was 1.08.
With `CC1(C)C[C@@H]2C[C@@](C)(CN2C(=O)c2cc(-n3cnnn3)[nH]n2)C1` the “% Inhibition” value was -5% and the Z score was 0.91.
For `O=C(c1cn2cccnc2n1)N1CCc2sccc2C1`, the “% Inhibition” value was -16% and the Z score was 2.49.
`O=C(CC1(C(=O)O)CCC1)N1CCCC[C@@H]1Cc1ccc(F)cc1` was tested, and the “% Inhibition” value was -18% and the Z score was 1.49.
